Measurements published in PubChem BioAssay AID1347165 (National Center for Advancing Translational Sciences (NCATS), 2019).
Out of some 220,000 compounds screened, about 5,700 (2.6%) were called active. Inconclusive means that the source gave no clear call. Such entries were picked first, then a sample of the others. Calls come from the whole dose curve; as a rule, active = well fitted inhibition curve with a large enough effect; inconclusive = small, poorly fitted or top-dose-only effect; inactive = no such curve, though single readings can be large or run the other way. Potencies of inconclusive entries are doubtful fits and often do not repeat.
Note: nearly all actives have a fitted effect of over 70% in size.
Potency is the fitted concentration of half-maximal effect; tags give direction and shape of the fitted curve.
Throughout, for activity change, negative = inhibition: 0% is about no effect.

The compounds below were run against Lysine-specific demethylase 5B (Homo sapiens) (UniProt Q9UGL1) (assay: Primary screen for KDM5B Histone Demethylases FDH-coupled qHTS). Details: FDH-coupled NADH fluorescence (FDH is formaldehyde dehydrogenase); activity change, negative = inhibition: at 57.7 µM (top of the series) unless noted.
Chain of UniProt Q9UGL1 (Q9UGL1 whole entry, looked up): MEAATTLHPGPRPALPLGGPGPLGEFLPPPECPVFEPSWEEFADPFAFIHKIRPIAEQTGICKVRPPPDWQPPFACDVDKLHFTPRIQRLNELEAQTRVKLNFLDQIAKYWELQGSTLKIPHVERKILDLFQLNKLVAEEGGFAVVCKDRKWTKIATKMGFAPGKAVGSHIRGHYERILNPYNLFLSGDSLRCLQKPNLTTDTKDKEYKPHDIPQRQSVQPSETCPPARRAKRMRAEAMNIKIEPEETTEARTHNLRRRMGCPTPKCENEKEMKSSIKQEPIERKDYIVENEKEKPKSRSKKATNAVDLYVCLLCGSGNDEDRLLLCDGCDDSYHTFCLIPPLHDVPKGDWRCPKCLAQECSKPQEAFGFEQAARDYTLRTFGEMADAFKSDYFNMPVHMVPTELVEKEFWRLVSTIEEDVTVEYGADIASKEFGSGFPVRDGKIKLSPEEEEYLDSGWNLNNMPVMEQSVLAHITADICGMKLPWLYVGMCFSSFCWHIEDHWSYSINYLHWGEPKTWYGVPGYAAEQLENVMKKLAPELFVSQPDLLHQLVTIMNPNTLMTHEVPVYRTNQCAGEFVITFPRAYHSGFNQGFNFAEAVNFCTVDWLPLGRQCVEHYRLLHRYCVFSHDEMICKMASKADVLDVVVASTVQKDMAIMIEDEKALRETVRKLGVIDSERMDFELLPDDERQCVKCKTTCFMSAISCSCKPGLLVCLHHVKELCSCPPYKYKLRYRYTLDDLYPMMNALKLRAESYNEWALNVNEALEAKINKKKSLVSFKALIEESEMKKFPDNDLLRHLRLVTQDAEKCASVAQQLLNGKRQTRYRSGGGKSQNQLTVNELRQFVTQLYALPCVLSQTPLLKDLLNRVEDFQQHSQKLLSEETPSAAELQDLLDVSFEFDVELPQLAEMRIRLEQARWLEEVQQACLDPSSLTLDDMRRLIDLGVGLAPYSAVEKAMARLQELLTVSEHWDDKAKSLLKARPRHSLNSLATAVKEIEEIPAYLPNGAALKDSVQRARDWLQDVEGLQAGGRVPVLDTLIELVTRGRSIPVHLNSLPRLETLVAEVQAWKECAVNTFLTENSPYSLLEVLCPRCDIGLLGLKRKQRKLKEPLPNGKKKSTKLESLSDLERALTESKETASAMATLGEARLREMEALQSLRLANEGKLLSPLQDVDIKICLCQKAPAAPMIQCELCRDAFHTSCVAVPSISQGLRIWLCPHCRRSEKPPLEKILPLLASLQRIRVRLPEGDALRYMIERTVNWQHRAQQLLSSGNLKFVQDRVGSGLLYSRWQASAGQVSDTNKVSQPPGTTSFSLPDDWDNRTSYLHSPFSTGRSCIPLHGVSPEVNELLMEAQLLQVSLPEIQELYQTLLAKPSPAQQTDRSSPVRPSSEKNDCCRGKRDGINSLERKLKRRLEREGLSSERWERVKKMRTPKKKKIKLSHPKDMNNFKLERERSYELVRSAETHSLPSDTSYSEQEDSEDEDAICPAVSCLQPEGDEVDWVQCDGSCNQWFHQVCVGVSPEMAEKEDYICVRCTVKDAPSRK
From the text: Assay Submitter (PI): Qin Yan, Ph.D. (Yale University) and Xiaodong Cheng, Ph.D. (MD Anderson) This project was funded as part of the NCI NEXT Program and Chemical Biology Consortium (CBC) The histone demethylases, KDM5A and KDM5B catalyze the demethylation of lysine 4 on histone H3 (H3K4me3/2). They are overexpressed in a variety of cancers and have been implicated in cancer cell growth, metastasis, drug resistance, and tumor growth. KDM5A is amplified and overexpressed in breast and gastric cancer; and is translocated in leukemia. While KDM5B is highly expressed in human mammary tumors and breast cancer cell lines, but not in normal adult breast tissue. Moreover, knockdown of KDM5B leads to upregulation of tumor suppressor genes, including BRCA1. The goal of this project is to employ qHTS to identify selective small molecule inhibitors of KDM5A/B demethylase activity to better understand the role of KDM5 in cancer and to develop novel therapies. We employed an FDH-coupled assay previously reported by Sakurai et al. to monitor in vitro KDM5 demethylase activity. Compounds showing dose response inhibition are re-acquired, validated, and tested for non-specific interference with the formaldehyde dehydrogenase (FDH) counterscreen. True inhibitors are validated using an AlphaLisa secondary screen, which employs an H3K4(me2-1)-specific antibody to monitor demethylation of a biotin-tagged H3K4(me3) peptide substrate. Inhibitors are profiled against KDM4A and KDM6A AlphaLisa counterscreens to determine level of demethylase specificity; and against the TruHits counterscreen to eliminate non-specific inhibitory activity on the AlphaLISA detection method. Selective inhibitors identified from the primary and secondary screening are tested in cells using immunofluorescence to monitor global H3K4 tri-methylation as a measure of KDM5A/B inhibition. Early Translation Branch (ETB) National Center for Advancing Translational Sciences (NCATS), Rockville, MD National Institute of Health (NIH), Bethesda, Maryland [1] Sakurai, M et al. A miniaturized screen for inhibitors of Jumonji histone demethylases. Mol Biosyst. 2010 Feb;6(2):357-64. doi: 10.1039/b912993f. Epub 2009 Oct 8.
Materials: 1536-well Black, solid bottom, medium binding assay plate is purchased from Greiner Bio-one. The enzymes (KDM5B) and substrate (H3K4me3/2) are provided by the principal investigators. The buffer for this assay is composed of 50mM HEPES at pH 7.5 with 0.01% Tween-20. FDH coupled Demethylase qHTS protocol: Three microliter enzyme mix (buffer + 200nM KDM5BDeltaAP final concentration) is dispensed into the assay plate using the BioRAPTR Flying Reagent Dispenser (FRD; […]). Compound (at various final concentration) and control solution is pin transferred to the assay plate using the Kalypsys 1536-pin tool apparatus. The assay plate is incubated for 10 min at room temperature followed by addition of 1uL substrate mix (buffer + 100uM ascorbic acid, 50uM ferrous ammonium sulfate, 12.5uM H3K4Me3, 25uM a-ketoglutarate, 0.25 mM NAD+, 0.25 U/mL formaldehyde dehydrogenase using the FRD yielding a total reaction volume of 4 uL. Initial fluorescence (Read1) is detected using the PerkinElmer ViewLux plate reader equipped with 340 nm excitation and 450 nm emission filters. The final fluorescence (Read2) signal is obtained after 30 min of room temperature incubation. Delta RFU is calculated (Read2 - Read1) and is used to generated dose response curves.
For CCOC(=O)c1c(-c2ccccc2)oc2ccc(OCC(=O)O)cc12, the Potency was inconclusive: 28.2 µM [inhibitor, partial curve, poor fit]. Cn1c(=O)n(-c2ccc(F)c(Cl)c2)c(=O)c2sc3ccccc3c21 was tested, and the Potency was inconclusive: 1.26 µM [inhibitor, partial curve, poor fit]. O=C(CC[C@@H]1CNC(=O)[C@@H]2C[C@H](NC(=O)Nc3cccc(Cl)c3)CN12)NCc1ccccc1 was tested, and the Potency was “inactive”. In the case of Cc1c(-c2ccccc2)c(=O)oc2ccc(OS(=O)(=O)c3ccc(Cl)cc3)cc12, the Potency is reported as inconclusive: 22.4 µM [inhibitor, partial curve, poor fit]. With Cn1cc(C(=O)N2CCN(C(=O)Cc3ccccc3)CC2)c2ccccc21 the Potency was “inactive”. For COC(=O)c1ccc(C(=O)N(CCN(C)C)c2nc3c(Cl)cccc3s2)cc1, the Potency was inconclusive: 25.1 µM [inhibitor, partial curve, poor fit]. With Cc1ccc(Cl)cc1NC(=O)c1oc2c(c1C)-c1[nH]ncc1CC2 the Potency was inconclusive: 28.2 µM [inhibitor, partial curve, poor fit]. CN1CC(=O)N(C2CCC2)Cc2c(NCC3CC3)ncnc21 was tested, and the Potency was inconclusive: 89.1 µM [inhibitor, partial curve]. With CNC(=O)[C@@H](CC(C)C)N1CCC[C@H]1C(=O)NCc1ccncc1 the Potency was inconclusive: 31.6 µM [inhibitor, single point]. In the case of CO[C@H]1C[C@@H](O)C12CCN(C(=O)Cn1cc(C)c(=O)[nH]c1=O)CC2, the Potency is reported as “inactive”. With Cc1ccc(NC(=O)c2cc3cn(C(C)C)cc3s2)c(C)c1 the Potency was inconclusive: 14.1 µM [inhibitor, partial curve]. CC(CNCc1ccco1)COc1ccc(F)cc1 (stereo not given) was tested, and the Potency was inconclusive: 12.6 µM [inhibitor, partial curve, poor fit]. For COc1ccc(/C=N/n2nnnc2N)cc1OC, the Potency was inconclusive: 28.2 µM [inhibitor, partial curve, poor fit]. CC1(C(=O)NCc2ccc(Cl)cc2)Cn2c(ccc2-c2ccco2)C(=O)N1CCc1ccco1 (stereo not given) was tested, and the Potency was inconclusive: 1.78 µM [inhibitor, partial curve, poor fit]. For Fc1ccc(-c2nc(Nc3cccc(Cl)c3)nc3c2COc2ccccc2-3)cc1, the Potency was inconclusive: 15.8 µM [inhibitor, partial curve, poor fit]. In the case of CC1(CCCCc2ccccc2)COc2ccc(C(=O)Nc3cccnc3)cc2N1 (stereo not given), the Potency is reported as active: 28.2 µM. O=C(CCC1N=C2c3ccccc3N=C(SCc3ccccc3F)N2C1=O)NC1CCCCC1 (stereo not given) was tested, and the Potency was inconclusive: 31.6 µM [inhibitor, partial curve, poor fit]. With O=C1CO[C@H]2CCN(Cc3ccncc3)CC[C@@H]2N1Cc1c[nH]c2ccccc12 the Potency was inconclusive: 31.6 µM [inhibitor, partial curve, poor fit]. In the case of COCCOc1ncccc1-c1noc([C@@H]2CCCN2Cc2ccc(OC)cc2)n1, the Potency is reported as inconclusive: 25.1 µM [inhibitor, partial curve]. For CCOCCCNC(=O)/C=C/c1ccc(OC)cc1, the Potency was “inactive”. For CCc1nn(CC(=O)NCCCN(CC)CC)c(=O)c2cc3sc(C)cc3n12, the Potency was inconclusive: 39.8 µM [inhibitor, single point]. CCOC(=O)c1cccc(NC(=O)c2cc3c(=O)n(Cc4ccccc4)ccc3nc2C)c1 was tested, and the Potency was inconclusive: 15.8 µM [inhibitor, partial curve, poor fit]. With Nc1nc(Nc2cccc(Cl)c2)nc(NCc2ccco2)c1[N+](=O)[O-] the Potency was inconclusive: 14.1 µM [inhibitor, partial curve, poor fit]. In the case of CCOC1CCN(C(=O)c2ccccc2-c2ncc(-c3ccc(C)cc3)o2)CC1, the Potency is reported as inconclusive: 25.1 µM [inhibitor, partial curve, poor fit]. For C=C(C)Cn1c(=O)c2c(nc3n2CCN3c2ccc(CC)cc2)n(C)c1=O, the Potency was inconclusive: 1.12 µM [inhibitor, full curve, poor fit]. CC(=O)N1CCN(C(=O)c2ccc(-c3ncc4cnc(-c5cccc(F)c5)cn34)cc2)CC1 was tested, and the Potency was inconclusive: 31.6 µM [inhibitor, partial curve, poor fit]. In the case of CCOc1ccc(/C=C/C(=O)c2cc3ccccc3oc2=O)cc1OC, the Potency is reported as “inactive”. With COc1ccc(-c2c(C#N)c(N)nc3c2CN(C)CC3)c(OC)c1 the Potency was inconclusive: 14.1 µM [inhibitor, partial curve, poor fit]. In the case of O=C(NCCC1=CCCCC1)c1cccnc1N1CC2CC(C1)[C@H]1CCCC(=O)N1C2 (stereo not given in full), the Potency is reported as active: 28.2 µM. For COc1ccc(C(=O)Nc2cc(NC(=O)c3ccc(Br)o3)ccc2OC)cc1, the Potency was “inactive”. In the case of O=C(Nc1ccc(Br)cc1F)c1cc(S(=O)(=O)NCc2ccc(F)cc2)ccc1F, the Potency is reported as inconclusive: 31.6 µM [inhibitor, partial curve, poor fit]. With CCOc1ccc(OCC)c(NC(=O)c2cc3n(n2)CC(c2ccc(Cl)cc2)OC3)c1 (stereo not given) the Potency was active: 14.1 µM. Cn1cc(C2Nc3ccccc3C(=O)N2c2ccc(Cl)cc2)c(=O)n(C)c1=O (stereo not given) was tested, and the Potency was inconclusive: 12.6 µM [inhibitor, single point]. COc1ccc(NC(=O)c2cc3c(s2)-c2c(C)cccc2OC3)c(OC)c1 was tested, and the Potency was inconclusive: 28.2 µM [inhibitor, single point]. With COc1ccc(-c2ccc3nnc(CNC(=O)c4cc(Cl)ccc4F)n3n2)cc1 the Potency was active: 28.2 µM. With COc1ccc(CCNC(=O)c2cc3c(-c4ccccc4F)nn(C)c3s2)c(OC)c1 the Potency was inconclusive: 20 µM [inhibitor, partial curve, poor fit]. In the case of O=C(CC1(C(=O)O)CCCCCC1)Nc1ccccc1CO, the Potency is reported as “inactive”. For CCOc1ccc(-c2cc(OC(=O)c3ccc(F)cc3)c3c(C)oc(C)c3c(=O)c2)cc1, the Potency was inconclusive: 28.2 µM [inhibitor, partial curve, poor fit]. With O=C(NCc1nnc2cc(-c3nc(C4CC4)no3)ccn12)c1ccc(Cl)cc1 the Potency was inconclusive: 17.8 µM [inhibitor, partial curve, poor fit]. In the case of CCn1cc(C#N)c(=O)n(Cc2coc(-c3ccc(Cl)cc3)n2)c1=O, the Potency is reported as “inactive”. O=S1(=O)NC2(CCCN(Cc3ccc(F)cc3)C2)COc2ccccc21 (stereo not given) was tested, and the Potency was “inactive”. COC(=O)CC(NC(=O)c1cc(C)nc2c1cnn2C(C)C)c1ccc(Br)cc1 (stereo not given) was tested, and the Potency was inconclusive: 22.4 µM [inhibitor, partial curve, poor fit]. With Cc1nc(N(C)C)ncc1C(=O)NCc1ccccc1 the Potency was inconclusive: 28.2 µM [inhibitor, partial curve, poor fit]. For COc1ccc2[nH]c(C[C@@H]3C[C@@H](C(C)C)[C@H](CNC(=O)C4CCC4)C=C3C)nc2n1, the Potency was inconclusive: 35.5 µM [inhibitor, partial curve, poor fit]. CC1CCC2(CC1)NC(=O)N(NC(=O)c1cc3ccccc3o1)C2=O (stereo not given) was tested, and the Potency was inconclusive: 31.6 µM [inhibitor, partial curve, poor fit]. CC(C)c1ccc(C(=O)NCc2ccco2)cc1 was tested, and the Potency was “inactive”. With O=C1N(Cc2cccc(F)c2F)CCCC1(O)CN1CCNCC1 (stereo not given) the Potency was inconclusive: 15.8 µM [inhibitor, partial curve, poor fit]. CSc1ccc(/C=N/NC(=O)c2cccs2)cc1 was tested, and the Potency was inconclusive: 39.8 µM [inhibitor, single point]. With COC[C@@H]1CN(c2cnccn2)C[C@H]1C(=O)NCc1ccc(C)c(C)c1 the Potency was active: 17.8 µM. In the case of O=C(Cc1ccccc1)NC1CCCc2c1[nH]c1ccccc21 (stereo not given), the Potency is reported as “inactive”. In the case of Cc1cc(OCC(=O)Nc2sc3c(c2C(N)=O)CCCC3)ccc1C(C)C, the Potency is reported as inconclusive: 12.6 µM [inhibitor, partial curve, poor fit]. COc1cccc(CCC(=O)N2CCCCCC2CN2CCC(OC)CC2)c1 (stereo not given) was tested, and the Potency was “inactive”. For Cc1ccc(/C(=N/O)c2ccc(O)cc2O)cc1, the Potency was inconclusive: 31.6 µM [inhibitor, single point]. In the case of Cc1ccc(N(CC(=O)NC(C)c2ccccc2)S(=O)(=O)c2c(C)noc2C)cc1 (stereo not given), the Potency is reported as inconclusive: 1.26 µM [inhibitor, full curve, poor fit]. CCC1CN(Cc2nc(-c3ccc(OC)cc3F)oc2C)CCN1C(C)C (stereo not given) was tested, and the Potency was inconclusive: 14.1 µM [inhibitor, partial curve]. With CCN(CC)CCCNC(=O)c1oc2c(c1C)-c1nn(Cc3ccc(Cl)cc3)cc1CC2 the Potency was inconclusive: 28.2 µM [inhibitor, partial curve, poor fit]. In the case of COc1ccc(NC(=O)C2CCCN(c3nnc(-n4c(C)ccc4C)s3)C2)cc1OC (stereo not given), the Potency is reported as “inactive”. For CN(C)c1ccc(-c2noc([C@@H]3CCCN3Cc3nc4ccccc4n3C)n2)cn1, the Potency was inconclusive: 31.6 µM [inhibitor, partial curve]. With Cc1ccc(C(=O)C(C)OC(=O)c2c(C)noc2C)cc1C (stereo not given) the Potency was “inactive”. For O=C1CC(c2ccccc2O)Cc2c1cnn2-c1nc2ccccc2[nH]1 (stereo not given), the Potency was “inactive”. For Cc1cc2c(cc1C)CSC(c1ccccc1OC(=O)c1ccc(I)cc1)SC2, the Potency was “inactive”. For Cc1cc2nc3c(=O)n(C)c(=O)n(C)c3nc2cc1N=CN(C)C, the activity change, negative = inhibition was inconclusive: -41% [inhibitor]. For Cc1cccc(C(=O)Nc2ccc(C(=O)OCc3cc(=O)n4ccsc4n3)cc2)c1, the Potency was “inactive”. In the case of CC(C)(C)c1noc(CSc2cc(C(N)=O)c3ccccc3n2)n1, the Potency is reported as inconclusive: 31.6 µM [inhibitor, single point]. In the case of Cc1nc2c(cc(OCC(O)COc3ccc(C#N)cc3)c3ccsc32)s1 (stereo not given), the Potency is reported as inconclusive: 14.1 µM [inhibitor, partial curve, poor fit].
